Some of the results follow.
What follows are sequences tested on PfHDP1 homeodomain (GST-tagged) (assay: gcPBM binding intensity (ln(normalized median fluorescence intensity)); higher = stronger DNA binding).
Method in brief: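 An Agilent 4 × 180k array of primer-extended double-stranded 36-bp intergenic genomic probes, with negative controls, was incubated for 1 h with GST-tagged P. falciparum DNA-binding domains expressed in E. coli. Alexa488 anti-GST antibody detected bound protein, scanned at 488 nm. Binding intensity is the highest Masliner-normalised natural-log median intensity across replicate spots of either probe orientation.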

| Sequence | gcPBM binding intensity (ln) |
| --- | --- |
| TTTTATTTTTTCCGACGTACATCCATTATATATAAT [XGTACX_site4469] | 7.2 |
| AAAATTATTTTTATGTGTACTTATTTATTATTTATA [XGTACX_site6665] | 6.33 |
| TTGTATTCCTTTTACAACTACCATGAAGAGAATTTT [CACACA_negctrl_site1286] | 6.33 |
| GTCGCCAAAAGGTGTACACATAATGCATTATCATAA [CACACA_site6112] | 7.63 |
| TAAAAAAAATAGCATACACACATATATACATATATA [CACACA_site658] | 6.3 |
| TGATAACCTAATAATACACACACATGAATATATATA [CACACA_site8226] | 6.66 |
| ATATTTAGGATTATCTGTACATAATATGTTTAATTA [XGTACX_site3426] | 6.37 |
| ATTAAAAAATTATTCACACAAAATAAAAAAATGAAA [CACACA_site4918] | 6.52 |
| TACACATAATATAATGCATGTGTGATGTATGTTTAA [TGCATGCA_site697] | 6.56 |
| TTTTCTTTTTTTTATTGTACTTATAAAAATAAATAA [XGTACX_site3498] | 6.35 |
| GCATATATCAAATATCGTACATTTTTTAAATTAAAA [XGTACX_site3994] | 6.28 |
| ATAGGACATGTATCCAGTACATATTTAAAAAAAATA [XGTACX_site88] | 6.24 |
| ATAAAATCAAAATATACACACAAGGGGGAAAATCAA [CACACA_site2809] | 6.79 |
| TTTGTAAGTCTTTGTTGTACTCAATAGAATGAAGAA [XGTACX_site8930] | 6.46 |
| AATTATTTACCCTATACACACAAAACCCACTAAAAA [CACACA_site4801] | 7.25 |
| AAGAACAGAACGTACACACACATATATATATATATA [CACACA_site3457] | 9.32 |
| AAAAAAAGAATGTGAACACACACATTGAATATAATT [CACACA_site8341] | 6.35 |
| AATCATATGAAAAATACATGCGCATGGATACCTTTA [TGCATGCA_site224] | 8.09 |
| TATAAATAAATACATACACACACATACATATATATA [CACACA_site9024] | 6.93 |

| Sequence | gcPBM binding intensity (ln) |
| --- | --- |
| TACTTATGTGCATACCTACACACTTACATATATATA [CACACA_site2975] | 9.55 |
| GATGATGTTTATTTGTGTACATATTAATACTTAATA [XGTACX_site1902] | 6.67 |
| AAAAAAAAAAAGAAAGCACACAATACATATGTATAA [CACACA_site1137] | 6.5 |
| TAAATTTTTAAATACACACATACACCCATACAGACA [CACACA_site548] | 7.18 |
| ATATATATCAGACACACACACATGTTTTAAAACTAT [CACACA_site77] | 7.33 |
| ACATATATATATATATATATATATATATAATATTTA [CACACA_negctrl_site633] | 7.22 |
| ATTATGCTACAAGGAGAACACACAATTGCCACTTTT [CACACA_site8673] | 7.29 |
| TTTTTTTTGTGGTGTCGTACATATGTTTGTTTTAAG [XGTACX_site1759] | 6.95 |
| GGTGATAATAAGCATACACACACACCCAAAAAAAAA [CACACA_site8137] | 6.65 |
| CCACGAGAATATATAGTGCATAATAATTTTTTTTTG | 8.82 |
| ATATATATATTATTTCGTACATAATTATTTGCCTTA [XGTACX_site350] | 8.39 |
| TTTTTTTTATTTTAATGTACATTTTTTATTTGTTAT [XGTACX_site7189] | 6.37 |
| TGATACTTTTTTTGTAGTACTCCTAAAATTATAAAA [XGTACX_site4340] | 6.56 |
| TAATAAAATATGTACGTGCACATAATTATACTAAAA | 10.5 |
| AAAAAAAAAAAAGAAACACACATATTTATATTTATA [CACACA_site6213] | 6.12 |
| AAAAAAAAAAAAAATTGTACAAAAAAAATAAATAAA [XGTACX_site6816] | 6.35 |
| TTATTTTAATAACCTACACACATTTTGTATATTTTA [CACACA_site4000] | 6.27 |
| TTATAAATATTCTTGGGTACTTAAGATGATATGTAA [XGTACX_site5496] | 6.2 |
| AAATGATGGAAAAAATAAATTTTTGTACAAAAATTA [CACACA_negctrl_site814] | 6.44 |

| Sequence | gcPBM binding intensity (ln) |
| --- | --- |
| TATATATATATATATATAATACGAATTTGTAGTACA [TGCATGCA_negctrl_site224] | 9.29 |
| ATGTTTTTAAAAAATTGTACATAATATTTTTTATAA [XGTACX_site7692] | 6.38 |
| AAAATAATGTATATATGTACATATAAATATATATAT [XGTACX_site8081] | 7.96 |
| TTGTATATTTTATGTACACACAATAAGTTAATATAA [CACACA_site4655] | 6.72 |
| TTTTTCTATAAAAAAAAAAAAAAAAAATATATATAT [TGCATGCA_negctrl_site535] | 8.02 |
| ATAAAAGGAAGAAAATGTACATATAATTATATGCAT [XGTACX_site8421] | 6.71 |
| TATTATTGCATATTTACACACGTACTAATTTAAACA [CACACA_site970] | 7.87 |
| TGTATACTATTAAATTGTACACATAAGAAATATTAT [XGTACX_site5839] | 6.58 |
| TTTTACAAATATAATGGGTGAGCTATCAAAATAAAT [GTGCAC_negctrl_site91] | 6.63 |
| TTTAAAAAGATATATACACACATATAAATAAATATA [CACACA_site6436] | 6.47 |
| ACACATACACATTAGGTGCATATATTTCAATATTAC [GTGCAC_site9423] | 9.83 |
| ATTATATTTTTAAGTACACACATATATATATATATA [CACACA_site5925] | 9.27 |
| AGCCTCGGGGTCATATATATATATATATATATATAT [CACACA_negctrl_site512] | 9.56 |
| CCACGTATAATATGTACACACACATATATACAAAAA [CACACA_site8208] | 6.7 |
| ATAAAAATCATGTTGGTGCGAAATTTTATTATCAGA [GTGCAC_site9735] | 7.07 |
| ATATTAATTCGTTTTGTACACACATAATGAATAATT [CACACA_site8701] | 6.42 |
| AATTATTTACCCTATACACACAAAACAGACTAAAAA [CACACA_site6688] | 6.76 |
| TTATGTATAAACACACGTACACACACTAAGTATATC [XGTACX_site3254] | 6.72 |
| AAGGTATGATTAATCACACACATAAATATATATACA [CACACA_site2658] | 6.67 |

Reference: the supplement of paper PMC11417369
